Measurements taken from publication PMC4336329 (PLoS ONE, 2015).
The whole screen tested about 310,000 compounds, of which about 14,000 (4.5%) showed an effect of 50% or more. Effects have a minus sign here. The list shows a part of the results. Where a SMILES comes first, the peptide text is derived from it. [ ]: non-standard residue; d: D form. The star is where a group is joined. ξ: configuration not given here. Piv = CC(C)(C)C(=O)*; ξNva = CCCC(N)C(=O)O

Target: human ether-à-go-go-related gene (hERG) potassium channel (human, UniProt Q12809)
Sequence (Q12809 whole entry, looked up): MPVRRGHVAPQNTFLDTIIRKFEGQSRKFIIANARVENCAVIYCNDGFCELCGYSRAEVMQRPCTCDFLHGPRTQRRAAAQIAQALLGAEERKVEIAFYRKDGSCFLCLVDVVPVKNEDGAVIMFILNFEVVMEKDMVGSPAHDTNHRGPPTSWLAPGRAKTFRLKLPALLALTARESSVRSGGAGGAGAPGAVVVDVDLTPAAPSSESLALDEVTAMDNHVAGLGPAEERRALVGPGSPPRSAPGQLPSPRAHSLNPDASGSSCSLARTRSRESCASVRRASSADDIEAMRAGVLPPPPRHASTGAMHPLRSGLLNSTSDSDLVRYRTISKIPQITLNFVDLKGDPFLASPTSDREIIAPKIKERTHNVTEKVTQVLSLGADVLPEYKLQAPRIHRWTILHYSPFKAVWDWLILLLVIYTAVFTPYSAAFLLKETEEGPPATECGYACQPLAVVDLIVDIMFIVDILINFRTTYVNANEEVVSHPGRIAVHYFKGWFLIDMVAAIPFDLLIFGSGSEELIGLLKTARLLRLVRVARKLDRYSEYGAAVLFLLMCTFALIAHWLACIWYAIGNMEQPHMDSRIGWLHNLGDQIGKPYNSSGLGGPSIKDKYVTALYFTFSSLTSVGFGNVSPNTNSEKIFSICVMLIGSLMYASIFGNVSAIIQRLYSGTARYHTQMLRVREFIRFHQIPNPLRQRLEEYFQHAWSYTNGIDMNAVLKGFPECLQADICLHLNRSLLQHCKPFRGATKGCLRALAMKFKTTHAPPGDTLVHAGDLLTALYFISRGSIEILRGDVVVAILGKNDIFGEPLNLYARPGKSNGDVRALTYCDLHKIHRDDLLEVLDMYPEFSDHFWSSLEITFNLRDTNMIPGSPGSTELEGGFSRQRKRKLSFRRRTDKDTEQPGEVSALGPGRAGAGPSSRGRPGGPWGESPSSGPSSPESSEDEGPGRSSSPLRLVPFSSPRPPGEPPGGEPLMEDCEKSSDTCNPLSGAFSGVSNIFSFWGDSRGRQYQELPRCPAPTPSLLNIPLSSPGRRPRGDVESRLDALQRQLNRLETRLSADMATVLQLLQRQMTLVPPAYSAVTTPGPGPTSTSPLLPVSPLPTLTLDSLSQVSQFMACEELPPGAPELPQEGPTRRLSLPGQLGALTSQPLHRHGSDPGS
Assay: primary screen, population patch clamp on CHO cells stably expressing hERG
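Also: peak tail current of the secondary pulse compared with the same well before compound.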

Row | SMILES | hERG current change (%, negative = inhibition) at 10uM
1 | O=C(NNS(=O)(=O)c1ccccc1[N+](=O)[O-])c1ccccc1Cl | 27.9%
2 | O=C(Nc1ccc2nc3n(c(=O)c2c1)CCCC3)c1cccc([N+](=O)[O-])c1 | -18.9%
3 | CN(C)c1ccc(/C=N/NS(=O)(=O)c2ccc(Br)cc2)cc1 | 5.14%
4 | CCC(=O)c1cc(F)ccc1OCC(=O)N1CCN(c2ccc(F)cc2)CC1 | -72.1%
5 | COc1ccc(C(=O)CSc2nnc(C(CO)NC(=O)c3ccc(OC)cc3)n2C)cc1 (stereo not drawn) | 4.9%
6 | N#Cc1c(C(F)(F)F)cc(-c2ccccc2)[nH]c1=O | 14.6%
7 | COCCN(C(=O)C(C)C)c1nnc(-c2ccc(C(C)(C)C)cc2)s1 | 30.1%
8 | Cc1ccc(CNS(=O)(=O)c2c(C)[nH]c(C)c2C(=O)N2CCCCC2)cc1 | 6.48%
9 | O=C(NCC(=O)N(c1cccnc1)C(C(=O)NC1CCCCC1)c1ccccc1)c1ccco1 (stereo not drawn) | 30.4%
10 | COc1cccc2cc(C(=O)NCC3CCCO3)c(=O)oc12 (stereo not drawn) | 12.4%
11 | CC(C)Nc1nc(-c2ccccn2)nc(-c2ccccc2)c1C#N | 26.6%
12 | O=[N+]([O-])c1ccc(Cl)cc1 | 10.9%
13 | COc1ccc(CCNC(=O)c2cccc3ccccc23)cc1OC | 7.77%
14 | S=c1nc2ccccc2c2nc(-c3cccnc3)[nH]n12 | 14.6%
15 | CCn1c(SCC(=O)c2c(N)n(C3CC3)c(=O)[nH]c2=O)nnc1-c1ccoc1C | 11.3%
16 | COc1ccc(NC(=O)c2sccc2SCC#N)cc1 | 5.33%
17 | Fc1ccccc1OCC1CCCN(Cc2nc(CC3CC3)no2)C1 (stereo not drawn) | -9.41%
18 | O=C(CSc1ccc(-c2ccc(F)cc2)nn1)N1CCOCC1 | -17.4%
19 | CN(C)S(=O)(=O)c1ccc(N2CCCC2)c(C(=O)NCC(=O)Nc2ccc(F)c(F)c2)c1 | -4.9%
20 | CCCN(CC(=O)Nc1ccccc1C)C(=O)c1oc2ccc(OCC)cc2c1C | -25.9%
21 | O=C(NCc1ccncc1)c1ccc(NS(=O)(=O)c2ccccc2)cc1 | 7.16%

Row | SMILES | hERG current change (%, negative = inhibition) at 10uM
22 | COc1cccc(CN2CCN(Cc3nc(-c4cccc(F)c4F)oc3C)CC2=O)c1 | -32.3%
23 | O=c1c2c(-c3ccccc3)csc2ncn1/N=C/c1c2ccccc2cc2ccccc12 | -11%
24 | O=C(/C=C/c1ccc(NC(=O)c2ccccc2-c2ccccc2C(=O)O)cc1)c1ccccc1 | 25.7%
25 | CC(C)Cn1cnc2c1c(=O)n(CC(=O)NN)c(=O)n2Cc1ccccc1 | 15.4%
26 | Cc1ccc(S(=O)(=O)NCc2ccc(C(=O)NC3CCCCC3)cc2)cc1 | 15.9%
27 | CCCCN(C(=O)c1ccc(COc2ccccc2)o1)c1c(N)n(CC(C)C)c(=O)[nH]c1=O | 8.93%
28 | CN1CCc2c(sc3c2C(=O)NC(c2ccc4c(c2)OCO4)N3)C1 (stereo not drawn) | -16.5%
29 | CCC(C)Sc1nc2c(cnn2-c2ccc(F)cc2)c(=O)[nH]1 (stereo not drawn) | 14.6%
30 | CCOC(=O)C1CCCCN1Cc1ccc(OC)c(OC)c1OC (stereo not drawn) | -27.9%
31 | C=CCn1c(SCC(=O)N2CCN(c3ccc(F)cc3)CC2)nnc1-c1cccs1 | -68.9%
32 | CCOC(=O)N1CCN(C(=O)c2c[nH]c3ccc(S(=O)(=O)N(C)c4cccc(C)c4)cc3c2=O)CC1 | 18.9%
33 | CCC(C)Nc1nc2c(c(=O)[nH]c(=O)n2C)n1CCC(C)C (stereo not drawn) | 0.589%
34 | OCCC1CN(Cc2cccn2-c2nccs2)CCN1CCc1ccccc1 (stereo not drawn) | -73.6%
35 | COc1ccc(S(=O)(=O)NC(C)C(=O)NCc2cccnc2)cc1Cl (stereo not drawn) | 10.4%
36 | COc1ccccc1C(=O)Nc1nnc(-c2ccc(F)cc2)s1 | -14.1%
37 | C/C(=N\NC(=S)NCc1ccccc1)C1CCCCC1 | 14.7%
38 | O=C(NNC(=O)C1CCCCC1)c1ccncc1 | 4.14%
39 | O=c1[nH]c(=S)[nH]c(O)c1/C=C1/C=c2ccccc2=N1 | 19.1%
40 | CC(C)C[C@H](NC(=O)c1nc[nH]c1C(=O)N1CCc2ccccc2C1)C(=O)OCc1ccccc1 | -4.26%
41 | COc1ccc(Nc2nnc(SCC(=O)Nc3ccc4[nH]c(=O)[nH]c4c3)s2)cc1 | 17.5%
42 | COc1ccc(NC(=O)CC2COc3ccccc3O2)c(OC)c1 (stereo not drawn) | -9.48%

Row | SMILES | hERG current change (%, negative = inhibition) at 10uM
43 | COc1ccccc1S(=O)(=O)Cc1ccc(C(=O)NCCCN2CCN(c3ccc(F)cc3)CC2)o1 | -79.2%
44 | COc1ccc(NC(=O)CCCn2cc([N+](=O)[O-])cn2)cc1 | -6.09%
45 | O=C(O)CCc1n[nH]c(=S)[nH]c1=O | 5.81%
46 | COc1cc(CNc2ncc(-c3ccc(Cl)cc3)n2C)cc(OC)c1OC.O=C(O)C(=O)O | -66.9%
47 | Cc1ccc(OCCn2c(NC(=O)c3ccco3)nc3ccccc32)cc1 | -5.24%
48 | CC1Cc2ccccc2N1C(=O)Cn1cnc2ccccc2c1=O (stereo not drawn) | 21.8%
49 | CN(Cc1ccccc1)C(=S)NC(=O)c1ccccc1 | 1.34%
50 | CCC(C)(C)n1nnnc1C(c1ccccc1F)N1CCC(C(N)=O)CC1 (stereo not drawn) | 1.53%
51 | COC(=O)[C@]1(CC(C)C)N[C@H](c2ccc(-c3cccc(Cl)c3)cc2)[C@@H]2C(=O)N(C)C(=O)[C@@H]21.O=C(O)C(F)(F)F | 1.22%
52 | COc1cc(C2NC(=S)NC3=C2CCc2ccccc23)cc(OC)c1OC (stereo not drawn) | 9.58%
53 | Cc1cccc(NS(=O)(=O)c2ccc(C(=O)NCC(c3ccccc3)N(C)C)cc2)c1C (stereo not drawn) | -4.98%
54 | CCCC(NC(=O)CNC(=O)C(C)(C)C)C(=O)O (stereo not drawn) (Piv-Gly-[ξNva]-OH) | 4.3%
55 | COc1ccc(Nc2nc3nonc3nc2N2CCCCC2)cc1 | -24.2%
56 | O=C(N/N=C/c1ccncc1)c1ccc2c(c1)OCO2 | 10.8%
57 | O=C(COC(=O)Cc1cn2ccsc2n1)NC12CC3CC(CC(C3)C1)C2 | -8.48%
58 | O=C(CN1CCOCC1)c1c[nH]c2ccccc12 | 5.71%
59 | COC(=O)C1=C(C(=O)OC)[C@@H]2Nc3ccccc3[C@@]23C[C@@H](C(=O)OC)N(C(C)=O)C3=N1 | -1.06%
60 | O=C(NCc1ccccc1)c1ccc(Cl)cc1[N+](=O)[O-] | 11.1%
61 | Cc1occc1-c1nnc(SCC(=O)Nc2ccccc2-c2ccccc2)n1C | -30.7%
62 | C1CCCCC1.OCCN1CCN(C2Cc3cc(Cl)ccc3Sc3ccc(Cl)cc32)CC1 (stereo not drawn) | 9.86%
63 | COC(=O)c1ccc(COc2ccc(/C=N/Nc3cccc(C(=O)O)c3)cc2)cc1 | 23%

Row | SMILES | hERG current change (%, negative = inhibition) at 10uM
64 | CC1(C)CC(=O)C(C2c3ccccc3S(=O)(=O)c3ccccc32)C(=O)C1 | 14.5%
65 | Cc1cc(C)c(C(=O)COC(=O)c2nn(C)c(=O)c3ccccc23)cc1C | -30.4%
66 | CC1CCCCC1NC(=O)/C(C#N)=C/c1ccc2c(c1)OCCO2 (stereo not drawn) | -12.9%
67 | Cc1cccc(/C(N)=N/OC(=O)c2cccnc2)c1 | 10.5%
68 | O=C(CCCN1C(=O)c2cccc3cccc(c23)C1=O)N1CCc2ccccc2C1 | -26.2%
69 | CCSCc1nnc(SCC(=O)Nc2cccc(SC)c2)n1C | -13.5%
70 | CCCc1cc(C(=O)N2CCN(C(c3ccccc3)c3ccccc3)CC2)no1 | -20.6%
71 | COc1cc(/C=N/Nc2cc(C)nc(N)n2)ccc1O | 18.4%
72 | O=C(COc1cccc2ccccc12)N/N=C/c1ccc(Sc2nc3ccccc3s2)o1 | 16.6%
73 | CN(C(=O)c1cccc(S(=O)(=O)N2CCCC2)c1)C1CCCCC1 | -1.08%
74 | CCCCn1c(/N=C/c2ccc3c(c2)OCO3)nc2ccccc21 | -5.08%
75 | Cc1cc(NS(=O)(=O)c2ccc(NC(=S)NC(=O)c3cccc(S(=O)(=O)N(C)C)c3)cc2)no1 | 37%
76 | COc1cccc(CSc2nc3ccccc3[nH]2)c1 | -16.9%
77 | CCN(CC)C(=O)Cn1cc(C(=O)C2CC2)c2ccccc21 | 5.42%
78 | CCOC(=O)Cc1csc(NC(=O)CCN2C(=O)c3cccc([N+](=O)[O-])c3C2=O)n1 | 4.52%
79 | COc1cc(C(=O)N(C)CCOc2ccc(C)cc2)ccc1OC1CCN(C(C)=O)CC1 | 8.41%
80 | CC(=O)N(CCc1ccccc1)Cc1cc2ccc(C)c(C)c2[nH]c1=O | -14.9%
81 | O=C(Cc1nn[nH]n1)Nc1cc(Cl)cc(Cl)c1 | 23.1%
82 | C#CCOCCOCCOCCNc1nc(N2CCN(C(=O)[C@H]([C@@H](C)CC)n3cc(CCC[NH+]=C(N)N)nn3)CC2)nc(N2CCN(C(=O)[C@H](CCCC[NH3+])n3cc(CCC(=O)O)nn3)CC2)n1.[Cl-] | 7.93%
83 | CCCC12CN3CCN(CC(C3)/C1=N\NC(=O)c1ccncc1)C2 | 4.11%
84 | Cc1cc(=O)oc2cc(OCCSCCN3CCCC3)ccc12 | -4.09%
